Data as given in PubChem BioAssay AID504339 (National Center for Advancing Translational Sciences (NCATS), 2011).
“And” between values parts separate entries of the source, which are not always exact repeats. Identical values can stand only once. Among all 390,000 compounds or so, about 17,000 (4.4%) were called active. Inconclusive results, whose numbers are uncertain, are shown with a selection of clear calls. Calls come from the whole dose curve; as a rule, active = well fitted inhibition curve with a large enough effect; inconclusive = small, poorly fitted or top-dose-only effect; inactive = no such curve, though single readings can be large or run the other way. Potencies of inconclusive entries are doubtful fits and often do not repeat. The source holds several records for some structures; these can differ, active in one and inactive in another.

Target: Lysine-specific demethylase 4A (Homo sapiens) (UniProt O75164)
Experiment: qHTS Assay for Inhibitors of JMJD2A-Tudor Domain; note: nearly all actives have a fitted effect of over 50% in size
Details: AlphaScreen JMJD2A-Tudor / H3K4me3 peptide binding; activity change, negative = inhibition: at 114 µM (top of the series)
% is set by controls: 0 for no effect and ±100 for the full control effect; potency is the fitted concentration of half-maximal effect; tags give direction and shape of the fitted curve.

Chain of UniProt O75164 (O75164 whole entry, looked up, the tested form may be a part): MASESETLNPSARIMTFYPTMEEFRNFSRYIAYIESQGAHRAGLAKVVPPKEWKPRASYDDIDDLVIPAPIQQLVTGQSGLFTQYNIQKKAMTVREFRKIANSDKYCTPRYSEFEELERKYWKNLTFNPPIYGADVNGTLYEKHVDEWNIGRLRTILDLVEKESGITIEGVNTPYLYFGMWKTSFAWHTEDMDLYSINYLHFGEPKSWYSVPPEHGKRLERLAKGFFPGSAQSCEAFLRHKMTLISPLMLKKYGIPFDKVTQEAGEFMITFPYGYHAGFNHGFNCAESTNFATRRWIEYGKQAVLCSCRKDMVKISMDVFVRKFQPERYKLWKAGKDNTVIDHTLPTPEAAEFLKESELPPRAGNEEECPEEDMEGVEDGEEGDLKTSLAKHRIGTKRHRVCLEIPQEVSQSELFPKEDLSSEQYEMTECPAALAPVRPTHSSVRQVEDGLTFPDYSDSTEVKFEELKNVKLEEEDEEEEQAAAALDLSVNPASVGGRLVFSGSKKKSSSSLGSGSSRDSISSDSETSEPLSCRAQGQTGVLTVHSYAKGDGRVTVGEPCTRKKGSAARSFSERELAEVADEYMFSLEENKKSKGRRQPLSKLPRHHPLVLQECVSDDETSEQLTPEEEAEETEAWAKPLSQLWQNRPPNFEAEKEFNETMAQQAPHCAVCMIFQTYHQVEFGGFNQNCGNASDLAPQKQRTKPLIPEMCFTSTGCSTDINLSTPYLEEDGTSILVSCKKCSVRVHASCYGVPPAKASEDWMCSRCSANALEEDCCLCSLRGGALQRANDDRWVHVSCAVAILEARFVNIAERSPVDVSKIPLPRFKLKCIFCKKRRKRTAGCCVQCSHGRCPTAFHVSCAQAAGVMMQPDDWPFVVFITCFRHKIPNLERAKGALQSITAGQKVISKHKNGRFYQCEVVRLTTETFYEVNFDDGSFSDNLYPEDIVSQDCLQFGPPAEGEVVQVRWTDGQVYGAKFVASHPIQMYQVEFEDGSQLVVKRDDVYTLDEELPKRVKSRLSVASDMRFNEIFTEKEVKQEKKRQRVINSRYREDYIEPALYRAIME

Activity change, negative = inhibition, inactive:
CCc1c(C)sc(NC(=O)C2c3ccccc3Oc3ccccc32)c1C(=O)OC(C)C 4.47%
CCOC(=O)c1c(NC(=S)Nc2ccccc2)sc(C)c1C -5.52%
O=C1c2ccccc2C(=O)N1CCCCN(C(=O)c1cc2ccccc2oc1=O)c1ccc(Cl)cc1 -13.9%
Cc1cccc(-c2nc(SCC(=O)NCc3ccco3)c3c(=O)n(C)c(=O)n(C)c3n2)c1 4.87%
COC(=O)c1cc2sccc2n1Cc1nc(-c2cccc(Br)c2)oc1C -11.3%
CCN(c1ccc(OC)cc1)S(=O)(=O)c1nnc(NC(=O)c2ccccc2C)s1 -13.8%
O=S(=O)(NCCc1cn2ccccc2n1)c1ccc2c(c1)OCCO2 -6.94%
COC(=O)c1ccc2c(=O)n(CCCCCC(=O)N3CCN(c4cc(Cl)ccc4C)CC3)c(=O)[nH]c2c1 -30.3%
COc1ccc(-n2cnnc2SCC(=O)Nc2cc(C(C)(C)C)nn2-c2ccccc2)cc1 -4.12%
NS(=O)(=O)c1ccc(CCNC(=O)c2ccc3nc(Cc4ccccc4)oc3c2)cc1 -5.75%
Cc1ccc(Nc2cc(C)nc3ncnn23)c(C)c1 -11.7%
NC(=O)c1cc([N+](=O)[O-])ccc1NCCN1C(=O)c2ccc(C(=O)O)cc2C1=O -14%
COCCN(C(=O)COC(=O)/C=C/c1ccc(SC)cc1)c1c(N)n(Cc2ccccc2)c(=O)[nH]c1=O -21.8%
CCOc1ccc(CCNC(=O)c2cc(=O)[nH]c3ccc(S(=O)(=O)N4CCCCC4)cc23)cc1OCC -12.5%
CC(=O)Oc1ccc(/C=N/NS(=O)(=O)c2ccc(C)cc2)c(OC(C)=O)c1 -19.7%
O=C(NCc1cccnc1)/C(=C\c1ccc(-c2ccc(Cl)c(Cl)c2)o1)S(=O)(=O)c1ccccc1 -35.6%
Cc1ccc2[nH]c3c(=O)n(Cc4ccncc4)cnc3c2c1 -10.5%
CC12CCC(C(=O)N(CCCCN3CCN(c4ccccn4)CC3)C1=O)C2(C)C (stereo not drawn) -7.38%

Potency, inactive and 12.6 µM (active):
O=C(O)c1cc(-c2ccco2)nc2ccc(Br)cc12

Potency, inconclusive:
Cc1nonc1CC(=O)N1CCc2c([nH]c3ccccc23)C1c1ccccc1F (stereo not drawn) 56.2 µM [inhibitor, partial curve]
CCCOC(=O)C1=C(C)NC2=C(C(=O)C(C(=O)OC)C(C)C2)C1c1ccc(N(C)C)cc1 (stereo not drawn) 44.7 µM [inhibitor, partial curve]
NC(=O)CSc1nnc(-c2cccc(S(=O)(=O)N3CCOCC3)c2)n1C1CCCCCC1 3.98 µM [inhibitor, partial curve]
CC1=NN(c2ccc(Br)cc2)C(=O)/C1=C/c1cccs1 11.2 µM [inhibitor, partial curve]
COC(=O)CCc1sc(NC2CCCCC2)nc1-c1ccc(OC)cc1 50.1 µM [inhibitor, partial curve]
Cc1cc2[nH]c(=O)c(=O)[nH]c2cc1S(=O)(=O)N1CCN(c2cccc(C)c2C)CC1 89.1 µM [inhibitor, partial curve]
Cc1cc(Oc2ccc(N)cn2)cc(C)c1Cl 20 µM [inhibitor, full curve]
CCCCNC(=S)NCc1ccc2[nH]c(C)cc2c1 56.2 µM [inhibitor, partial curve]
CC12CCC(C/C1=N/OC(=O)c1cccc([N+](=O)[O-])c1)C2(C)C (stereo not drawn) 56.2 µM [inhibitor, partial curve, poor fit]
COc1ccccc1Nc1c2c(nc3ccc(NC(=O)c4cccc(OC)c4OC)cc13)CCCC2 28.2 µM [inhibitor, full curve]
CC(C)=CCc1c(O)c(CC=C(C)C)c2c(c1O)C(=O)CC(c1ccc(O)cc1)O2 (stereo not drawn) 50.1 µM [inhibitor, partial curve]
Cn1c(C(=O)NCCN2CCc3ccccc3C2)cc2c(=O)[nH]c3ccccc3c21 17.8 µM [inhibitor, full curve, poor fit]
C=CCN1C(c2ccc(Br)cc2)=CS/C1=C(\C#N)c1nnc(N2CCOCC2)n1-c1ccccc1 56.2 µM [inhibitor, partial curve]
CNC(=S)NNC(=O)c1ccc(=O)n(Cc2cccc(C(F)(F)F)c2)c1 3.55 µM [inhibitor, single point]
COc1ccc(C(=O)/C=C/Nc2ccc(S(=O)(=O)Nc3onc(C)c3C)cc2)cc1 63.1 µM [inhibitor, single point]
COc1cc(C(c2oc(CO)cc(=O)c2O)c2oc(CO)cc(=O)c2O)cc(OC)c1OC 89.1 µM [inhibitor, single point]
COc1cccc(-c2nc(SCC(=O)NCC3CCCO3)c(-c3ccc(F)cc3)[nH]2)c1 (stereo not drawn) 70.8 µM [inhibitor, partial curve, poor fit]
CCOc1cc(N2CCOCC2)c(OCC)cc1NC(=O)Cc1ccc(OC)c(OC)c1 56.2 µM [inhibitor, partial curve]
Cc1ccc(N=Cc2cc3c(cc2[N+](=O)[O-])OCO3)cc1[N+](=O)[O-] 79.4 µM [inhibitor, partial curve]
COc1cccc(CNCCc2c[nH]c3ccccc23)c1OCc1ccccc1 44.7 µM [inhibitor, partial curve]
C/C(=N\Nc1ccc(C(F)(F)F)cc1[N+](=O)[O-])C(C)C 12.6 µM [inhibitor, full curve]
FC(F)(F)c1cccc(N2CCN(Cc3nnc(-c4ccc5c(c4)OCO5)o3)CC2)c1 79.4 µM [inhibitor, partial curve]
COc1ccc(Nc2nc(NCCN3CCOCC3)nc(Nc3ccc(OC)cc3)n2)cc1 56.2 µM [inhibitor, partial curve]
O=C1C(=O)c2ccccc2C(O)=C1CC=C(Cl)Cl 56.2 µM [inhibitor, partial curve]
COc1cccc(N(CC(=O)NC2CCCCC2)C(=O)CCC(=O)Nc2nccs2)c1 56.2 µM [inhibitor, partial curve]
Cc1ccc(C(=O)Nc2ccc(Nc3ccccc3)cc2)cc1Br 17.8 µM [inhibitor, full curve]
Cc1nc(Nc2ccc(C(=O)O)cc2)sc1-c1ccccc1 63.1 µM [inhibitor, single point]
Cc1cccc(-c2nc(CSCC(=O)N3CCN(c4ccccc4)CC3)c(C)o2)c1 44.7 µM [inhibitor, partial curve]
O=c1[nH]c2ccc(N/C(=N/S(=O)(=O)c3ccccc3)c3ccccc3)cc2[nH]1 89.1 µM [inhibitor, single point]
CCn1c(O)c(/C=C/C=C/C=Nc2ccccc2)sc1=S 89.1 µM [inhibitor, partial curve]
N#Cc1ccc(S(=O)(=O)NCC(=O)OCC(=O)NCCc2ccccc2)cc1 39.8 µM [inhibitor, single point]
COc1cc2c(-c3ccc(O)cc3)nc3c(c(C)nn3-c3ccccc3)c2cc1OC 79.4 µM [inhibitor, single point]
COCC(=O)Oc1c(S(=O)(=O)c2ccc(C)cc2)c(C)nn1-c1ccccc1 39.8 µM [inhibitor, full curve]
COc1cc(OC)c(NC(=O)N2CCc3c(sc4c3CCCC4)C2c2ccccc2)cc1Cl (stereo not drawn) 44.7 µM [inhibitor, partial curve]
O=C(Nc1nnc(S(=O)(=O)N2CCCCCC2)s1)c1ccccc1Cl 17.8 µM [inhibitor, full curve]
Cc1n[nH]c(=O)nc1N/N=C/c1cccs1 79.4 µM [inhibitor, single point]
COc1ccc(S(=O)(=O)N2CCN(C(=O)c3cccs3)CC2)cc1 56.2 µM [inhibitor, partial curve]
O=C(NCCCO)c1cc([N+](=O)[O-])cc2c1C=Cc1ccccc1O2 35.5 µM [inhibitor, single point]
CC1C/C(=N/Nc2nc3ccccc3[nH]2)CC(C)(C)C1 (stereo not drawn) 56.2 µM [inhibitor, partial curve]
Cc1cccc(C(=O)N2CCc3cc(-c4nc(NC(=O)CN5CCCC5)sc4C)ccc32)c1 50.1 µM [inhibitor, partial curve]
O=C(NCc1ccc(Cl)cc1)c1n[nH]c([N+](=O)[O-])c1Cl 22.4 µM [inhibitor, full curve]
CCc1cccc(NC(=O)Cn2cc(C(=O)c3ccncc3)c(=O)c3cc(C)c(C)cc32)c1 56.2 µM [inhibitor, partial curve]

Potency, active:
O=C(/C=C/c1ccc(O)c(O)c1)c1ccccc1O 3.55 µM
NC(=O)C1CCN(Cc2nc3ccccc3c(=O)[nH]2)CC1 3.16 µM
Cc1nc(C(F)(F)F)c(C(=O)N/N=C(\N)c2cccnc2)s1 28.2 µM
CC(C)(C)C1CCc2c(sc(NC(=O)CCC(=O)O)c2C(=O)Nc2ccccc2C(F)(F)F)C1 (stereo not drawn) 56.2 µM
CCOC(=O)CCNC(C(=O)OCC)c1ccccc1 (stereo not drawn) 35.5 µM
O=C(CCN1C(=O)/C(=C/c2ccco2)SC1=S)Nc1ccc(O)cc1C(=O)O 28.2 µM
Oc1ccc(CCc2n[nH]c(=S)n2-c2ccc(F)cc2)cc1 25.1 µM
